From publication PMC8516944
These are yes or no findings as the source states them, for the method shown. In cells and extracts the contact can be indirect. Some results given as binding are weak or reduced against the parent protein; the word gives no strength. Where a sequence is shown, tags or fusion partners need not be part of it.

T1: FLAG-AFP (alpha fetoprotein), expressed in HEK293T cells (UniProt P02771)
T1 sequence: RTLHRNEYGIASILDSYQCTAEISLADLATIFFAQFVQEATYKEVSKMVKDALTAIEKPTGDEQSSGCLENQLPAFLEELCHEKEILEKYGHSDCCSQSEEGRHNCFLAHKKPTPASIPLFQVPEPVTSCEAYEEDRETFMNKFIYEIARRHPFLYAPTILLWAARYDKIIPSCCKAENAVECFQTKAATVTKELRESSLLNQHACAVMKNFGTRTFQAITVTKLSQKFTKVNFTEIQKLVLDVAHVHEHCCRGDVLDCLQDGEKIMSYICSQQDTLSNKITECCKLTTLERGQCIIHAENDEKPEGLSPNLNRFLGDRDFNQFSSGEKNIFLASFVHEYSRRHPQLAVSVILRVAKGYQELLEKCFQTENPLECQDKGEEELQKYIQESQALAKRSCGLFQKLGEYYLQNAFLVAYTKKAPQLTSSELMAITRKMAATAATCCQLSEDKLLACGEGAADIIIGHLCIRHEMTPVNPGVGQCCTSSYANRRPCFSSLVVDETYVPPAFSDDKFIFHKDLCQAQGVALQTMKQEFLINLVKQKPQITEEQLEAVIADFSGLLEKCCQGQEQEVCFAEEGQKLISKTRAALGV

T2: FLAG-AFP expressed in HepG2 cells (UniProt P02771)
T2 sequence: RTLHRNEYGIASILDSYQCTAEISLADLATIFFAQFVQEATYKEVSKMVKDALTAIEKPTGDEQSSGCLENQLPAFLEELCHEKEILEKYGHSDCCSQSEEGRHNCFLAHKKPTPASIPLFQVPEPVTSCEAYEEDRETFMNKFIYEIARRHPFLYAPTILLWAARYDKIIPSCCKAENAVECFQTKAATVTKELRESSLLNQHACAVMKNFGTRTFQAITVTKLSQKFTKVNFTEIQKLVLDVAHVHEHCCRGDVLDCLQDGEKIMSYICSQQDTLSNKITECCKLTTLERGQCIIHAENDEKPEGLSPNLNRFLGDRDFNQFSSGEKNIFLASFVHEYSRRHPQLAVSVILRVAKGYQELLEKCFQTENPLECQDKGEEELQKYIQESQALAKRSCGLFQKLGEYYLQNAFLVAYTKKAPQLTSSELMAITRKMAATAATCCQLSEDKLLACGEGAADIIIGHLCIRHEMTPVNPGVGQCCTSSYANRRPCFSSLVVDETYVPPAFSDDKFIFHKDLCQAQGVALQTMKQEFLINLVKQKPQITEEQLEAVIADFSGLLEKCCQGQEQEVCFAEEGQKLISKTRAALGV


Columns and labels:
[1] = target: T1, FLAG-AFP (alpha fetoprotein), expressed in HEK293T cells; test: co-IP; HEK293T cells co-transfected with FLAG-AFP and HA-GP73 (or HA-tagged deletion mutants); IP lysis buffer (25 mM Tris-HCl pH 7.4, 150 mM NaCl, 1% Nonidet P-40, 1 mM EDTA, 5% glycerol); immunoprecipitation with anti-HA or anti-FLAG, Protein A-Sepharose, overnight at 4 °C; western blotting
[2] = target: T2, FLAG-AFP expressed in HepG2 cells; test: co-IP; HepG2 cells co-transfected with HA-GP73 and FLAG-AFP, with or without sorafenib (10 μmol/L, 24 h); IP lysis buffer; immunoprecipitation with anti-HA, western blotting with anti-HA or anti-FLAG

Row | Binder | binding [1] | binding [2]
1 | HA-GP73 Δ91–150 (protein, UniProt Q8NBJ4) MMGLGNGRRSMKSPPLVLAALVACIIVLGFNYWIASSRSVDLQTRIMELEGRVRRAAAERGAVELKKNEFQGELEKQREQLDKIQSSHNFKFSYDLSQCINQMKEVKEQCEERIEEVTKKGNEAVASRDLSENNDQRQQLQALSEPQPRLQAAGLPHTEVPQGKGNVLGNSKSQTPAPSSEVVLDSKRQVEKEETNEIQVVNEEPQRDRLPQEPGREQVVEDRPVGGRGFGGAGELGQTPQVQAALSVSQENPEMEGPERDQLVIPDGQEEEQEAAGEGRNQQKLRGEDDYNMDENEAESETDKQAALAGNDRNIDVFNVEDQKRDTINLLDQREKRNHTL | binds | –
2 | HA-GP73 Δ146–205 (protein, UniProt Q8NBJ4) MMGLGNGRRSMKSPPLVLAALVACIIVLGFNYWIASSRSVDLQTRIMELEGRVRRAAAERGAVELKKNEFQGELEKQREQLDKIQSSHNFQLESVNKLYQDEKAVLVNNITTGERLIRVLQDQLKTLQRNYGRLQQDVLQFQKNQPQPRLQAAGLPHTEVPQGKGNVLGNSKSQTPAPSSEVVLDSKRQVEKEETNEIQVVNEEPQRDRLPQEPGREQVVEDRPVGGRGFGGAGELGQTPQVQAALSVSQENPEMEGPERDQLVIPDGQEEEQEAAGEGRNQQKLRGEDDYNMDENEAESETDKQAALAGNDRNIDVFNVEDQKRDTINLLDQREKRNHTL | binds | –
3 | HA-GP73 expressed in HepG2 cells (protein, UniProt Q8NBJ4 1-401) MMGLGNGRRSMKSPPLVLAALVACIIVLGFNYWIASSRSVDLQTRIMELEGRVRRAAAERGAVELKKNEFQGELEKQREQLDKIQSSHNFQLESVNKLYQDEKAVLVNNITTGERLIRVLQDQLKTLQRNYGRLQQDVLQFQKNQTNLERKFSYDLSQCINQMKEVKEQCEERIEEVTKKGNEAVASRDLSENNDQRQQLQALSEPQPRLQAAGLPHTEVPQGKGNVLGNSKSQTPAPSSEVVLDSKRQVEKEETNEIQVVNEEPQRDRLPQEPGREQVVEDRPVGGRGFGGAGELGQTPQVQAALSVSQENPEMEGPERDQLVIPDGQEEEQEAAGEGRNQQKLRGEDDYNMDENEAESETDKQAALAGNDRNIDVFNVEDQKRDTINLLDQREKRNHTL | – | binds
4 | HA-GP73 Δ36–100 (protein, UniProt Q8NBJ4) MMGLGNGRRSMKSPPLVLAALVACIIVLGFNYWIADEKAVLVNNITTGERLIRVLQDQLKTLQRNYGRLQQDVLQFQKNQTNLERKFSYDLSQCINQMKEVKEQCEERIEEVTKKGNEAVASRDLSENNDQRQQLQALSEPQPRLQAAGLPHTEVPQGKGNVLGNSKSQTPAPSSEVVLDSKRQVEKEETNEIQVVNEEPQRDRLPQEPGREQVVEDRPVGGRGFGGAGELGQTPQVQAALSVSQENPEMEGPERDQLVIPDGQEEEQEAAGEGRNQQKLRGEDDYNMDENEAESETDKQAALAGNDRNIDVFNVEDQKRDTINLLDQREKRNHTL | no binding | –
5 | HA-GP73 Δ56–92 (protein, UniProt Q8NBJ4) MMGLGNGRRSMKSPPLVLAALVACIIVLGFNYWIASSRSVDLQTRIMELEGRVRRESVNKLYQDEKAVLVNNITTGERLIRVLQDQLKTLQRNYGRLQQDVLQFQKNQTNLERKFSYDLSQCINQMKEVKEQCEERIEEVTKKGNEAVASRDLSENNDQRQQLQALSEPQPRLQAAGLPHTEVPQGKGNVLGNSKSQTPAPSSEVVLDSKRQVEKEETNEIQVVNEEPQRDRLPQEPGREQVVEDRPVGGRGFGGAGELGQTPQVQAALSVSQENPEMEGPERDQLVIPDGQEEEQEAAGEGRNQQKLRGEDDYNMDENEAESETDKQAALAGNDRNIDVFNVEDQKRDTINLLDQREKRNHTL | no binding | –
